# Results taken from PubChem BioAssay AID485313 (National Center for Advancing Translational Sciences (NCATS), 2010).
# The campaign covered roughly 320,000 compounds. About 7,600 (2.4%) were called active. Inconclusive means that the source gave no clear call. Such entries were picked first, then a sample of the others. Calls come from the whole dose curve; as a rule, active = well fitted activation curve with a large enough effect; inconclusive = small, poorly fitted or top-dose-only effect; inactive = no such curve, though single readings can be large or run the other way. No potency is given beside an inconclusive call; the fits are too rough.
# Assay: qHTS Assay for NPC1 Promoter Activators; note: nearly all actives have a fitted effect of over 60% in size; for activation: % of control where 0% means no effect
# Details: Huh7 NPC1 promoter luciferase reporter, 24 h; series mostly up to 9.22 µM; activation: at the top concentration
# Outline: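 Luminescence read-out of NPC1 promoter-driven luciferase in stably transfected Huh7 cells; compounds delivered in DMSO and left 24 h at 37C, 5% CO2, qHTS titration format.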
# Potency is the fitted concentration of half-maximal effect; tags give direction and shape of the fitted curve.
SMILES,activation,Potency
COc1ccc(NC2CCCN(C(=O)CCc3ccncc3)C2)cc1OC (stereo not drawn),inactive: -1.52%,
Cc1ccc(C(=O)NCc2ccccn2)c(Cl)c1,inactive: 22.9%,
CC(C)C(=O)Nc1ccc(NC(=O)c2cccs2)cn1,,"inconclusive [activator, partial curve]"
COCCNC(=O)CCCC(=O)NCCOC,inactive: -2.71%,
CCCOc1ccc(-c2nc(N3CCN(C)CC3)c3ccccc3n2)cc1,,"inconclusive [activator, single point]"
COc1ccc(-n2cc(CN3CCCC3)c(-c3cccc(F)c3)n2)cc1,inactive: -3.15%,
O=C1C(c2ccncc2)=C(O)c2ccccc21,,active: 0.708 µM
O=C(c1cc(COc2ccc(F)cc2F)on1)N1CC2C[C@@H]3CC1C[C@H](C2)C3,,"inconclusive [activator, single point]"
CC(Sc1nncn1C)C(=O)Nc1nnc(-c2ccccc2)s1 (stereo not drawn),,"inconclusive [activator, partial curve]"
COc1ccc2cc(C(=O)N3CCc4ccccc43)[nH]c2c1,,"inconclusive [activator, single point]"
O=C(Nc1ccc(Cl)c(Cl)c1)c1cccnc1,,"inconclusive [activator, single point]"
O=C(NC1=NCCS1)c1cc2ccccc2o1,,active: 0.316 µM
O=C(O/N=C(\c1ccccc1)c1ccncc1)c1ccccc1F,inactive: -1.12%,
COc1ccc(OCc2cc(C(=O)N3CCC(OC)CC3)no2)c2ccccc12,,"inconclusive [activator, partial curve]"
O=C(NC1CCCCC1)c1ccc2c(c1)OCO2,,"inconclusive [activator, partial curve]"
O=S(=O)(Nc1ccc(-c2nc3cccnc3s2)cc1)c1ccc(Cl)s1,,"inconclusive [activator, partial curve]"
COc1ccc(/C=N/NC(=O)c2cc(C)n(-c3ccccc3)c2C)cc1OC,inactive: -20.2%,
Nc1ccc2oc(-c3cccc(Br)c3)nc2c1,,active: 1.12 µM
Cc1cccc(NC(=O)c2cc(-c3ccc(C)c(C)c3O)n[nH]2)c1,,"inconclusive [activator, single point]"
COC(=O)c1c(NC(=S)NNC(=O)c2ccc(Cl)s2)sc(C(=O)N(C)C)c1C,inactive: 1.48%,
O=C(CSc1ccc(F)cc1)Nc1ccc(Br)cc1,,"inconclusive [activator, single point]"
CCC(=O)Nc1cccc(NC(=S)NC(=O)c2ccccc2C)c1,,"inconclusive [activator, single point]"
COC(=O)C1NN=C(C(=O)c2ccc(Cl)cc2)C1c1ccc(OC)cc1 (stereo not drawn),inactive: -2.48%,
Oc1cc(NCc2cccnc2)ccc1-c1nc2ccccc2o1,,active: 1.41 µM
Cc1ccc(NC(=O)Nc2cnccn2)c(C)c1,,"inconclusive [activator, partial curve]"
CCOC(=O)C/C(C)=N/NC(=O)C1CC1(c1ccccc1)c1ccccc1 (stereo not drawn),inactive: -3.51%,

SMILES,activation,Potency
O=C(NC1CC1)c1scc2c1OCCO2,inactive: 0.0414%,
NC(=O)Cn1cnc2nc3n(c2c1=O)CCC3,inactive: -3.32%,
Cc1cc(N2CCOCC2)nc2ccc(NC(=S)NCCC(C)C)cc12,inactive: 6.79%,
COc1ccc(OC)c(N/C=C/C(=O)c2ccccc2)c1,,"inconclusive [activator, partial curve]"
COc1cc2cc(CN(CCc3ccccc3C)C(=S)NCCCN(C)C)c(=O)[nH]c2cc1OC,inactive: -2.98%,
COc1ccc(-c2csc(NC(=O)C3=COCCO3)n2)cc1OC,,"inconclusive [activator, partial curve]"
CCN(CC)C(=O)CSc1nnc(-c2ccccc2)o1,,"inconclusive [activator, partial curve]"
O=C(OCC(=O)c1c[nH]c2ccccc12)C1=COCCO1,,"inconclusive [activator, partial curve]"
COc1ccc(-c2cc(C(=O)N3CCCc4ccccc43)no2)cc1,,"inconclusive [activator, single point]"
N=S(=O)(O)Cc1noc2ccccc12,inactive: -0.584% [at 46.1 µM],
O=C(Nc1ccccc1)N1CCCC2CCCCC21 (stereo not drawn),,"inconclusive [activator, partial curve]"
NC(=O)Nc1ccccc1C(=O)NCCc1ccccc1,,"inconclusive [activator, single point]"
O=C(N/N=C/c1ccc(Br)s1)c1ccco1,,"inconclusive [activator, partial curve]"
CCCNC(=O)c1oc2ccc3c(c2c1C)C=CC(C)(C)O3,,"inconclusive [activator, partial curve]"
COc1cc(C(=O)Nc2ccc(S(=O)(=O)Nc3cnc4ccccc4n3)cc2)cc(OC)c1OC,inactive: -3.13%,
Cn1nnnc1SCC(=O)Nc1nc2c(s1)CCCC2,,"inconclusive [activator, partial curve]"
CCOC(=O)CC1COCCN1C(=O)c1ccc2oc(Cc3ccccc3)nc2c1 (stereo not drawn),,"inconclusive [activator, partial curve]"
CCC1(C)Cc2c(sc(NC(=S)NC(=O)c3ccccc3)c2C#N)CO1 (stereo not drawn),inactive: 17.8%,
Cc1cc(C)c2cc(C(=O)Nc3ccccc3)[nH]c2c1,,active: 4.47 µM
O=C(NCCCc1ccccc1)c1cnc2n(c1=O)CCS2,,"inconclusive [activator, partial curve]"
CC(C)(C)C(CN1CCCC1)OC(=O)c1ccccc1 (stereo not drawn),inactive: 2.53%,
Cc1ccc(C(=O)Nc2nc(C)c(C)s2)o1,,"inconclusive [activator, partial curve]"
Cc1ccc2nc(=O)c(NNc3ccccc3)cnc2c1,,"inconclusive [activator, partial curve]"
O=C(O)c1cccc(Nc2ccnc(Nc3cccc(C(=O)O)c3)n2)c1,,"inconclusive [activator, partial curve]"
CC(=O)Nc1ccccc1C(=O)C(=O)Nc1ccccc1,,"inconclusive [activator, partial curve]"
O=C(COc1coc(CN2CCc3ccccc3C2)cc1=O)Nc1ccc([N+](=O)[O-])cc1,inactive: 0.0418%,

SMILES,activation,Potency
COc1cccc(CN(C)C(=O)CC23CC4CC(CC(C4)C2)C3)c1OC,,"inconclusive [activator, single point]"
Clc1cc(NCc2cccs2)ccc1N1CCOCC1,,"inconclusive [activator, single point]"
CCOC(=O)N1CCC(Nc2ncnc3c2cnn3-c2ccc(Cl)cc2)CC1,,"inconclusive [activator, partial curve]"
COc1ccccc1C(=O)/C=C/c1ccc(N2CCCCC2)c([N+](=O)[O-])c1,,"inconclusive [activator, single point]"
CCc1ccc(-c2cc(-c3n[nH]c(=S)n3CC)c3ccccc3n2)cc1,inactive: 13.4%,
CCOC(=O)CSc1nc2cc(OCC)ccc2cc1C#N,,"inconclusive [activator, single point]"
CC(C)(C)C(=O)Nc1nnc(SCc2cccc(F)c2)s1,,"inconclusive [activator, partial curve]"
CCCCOC(=O)Nc1ccc(N2CCOCC2)cc1,,"inconclusive [activator, partial curve]"
CN=c1scc(-c2cccs2)n1/N=C/c1ccc(O)c(O)c1O,,"inconclusive [activator, full curve]"
O=C(Oc1ccc(Br)cc1C(=S)N1CCOCC1)c1ccc([N+](=O)[O-])cc1[N+](=O)[O-],inactive: 1.03%,
CN(C)c1ccc(/C=C2\C(=O)Nc3ccccc32)cc1,,active: 1.46 µM
O=C(CCCOc1ccccc1)Nc1nc2ccccc2[nH]1,,"inconclusive [activator, partial curve]"
O=C(Oc1ccc2c(c1)C(=O)c1ccccc1CO2)c1ccccc1,inactive: 1.04%,
CCCCCCSc1ccc(-c2nc3ccc(C)cn3c2NCc2ccccc2)cc1,inactive: -9.17%,
CC(=O)c1cccc(OCc2cc(C(=O)N3C[C@@H](C)O[C@@H](C)C3)no2)c1,,"inconclusive [activator, single point]"
N#Cc1nc(-c2ccc(Cl)cc2)oc1NCCc1ccccn1,,"inconclusive [activator, single point]"
Cc1nonc1NC(=O)c1oc2ccc(F)cc2c1C,,"inconclusive [activator, single point]"
CSc1cccc(NC(=O)/C=C/c2ccc(Cl)cc2)c1,,"inconclusive [activator, single point]"
COc1cc(O)c2c(=O)c(-c3ccc(O[C@@H]4O[C@H](CO)[C@@H](O)[C@H](O)[C@H]4O)cc3)coc2c1,,active: 1.58 µM
CC(=O)N/C(N)=N/c1nc2cc([N+](=O)[O-])ccc2o1,,"inconclusive [activator, partial curve]"
Cc1cc(=O)[nH]c(N/N=C/c2ccc3c(c2)OCCO3)n1,,"inconclusive [activator, partial curve]"
CC(C)(C)c1ccc(OCCC(=O)Nc2cccc(S(=O)(=O)NC3=NCCCCC3)c2)cc1,inactive: -10.9%,
Cc1ccc2sc(NC(=O)c3cccc(N4C(=O)CCC4=O)c3)nc2c1C,inactive: 16.9%,
Cc1ccccc1C(=O)NC(=S)Nc1ncccn1,,"inconclusive [activator, single point]"
CCS(=O)(=O)N1CCN(c2ccccc2F)CC1,inactive: -3.3%,
COc1ccc(Nc2cc(C(=O)NCCCN3CCOCC3)c3ccccc3n2)cc1,inactive: -1.82%,
